Substitutions are numbered along the chain they refer to. Names may count otherwise. These are yes or no findings as the source states them, for the method shown. Some results given as binding are weak or reduced against the parent protein; the word gives no strength. For some of these results: Where a sequence is shown, tags or fusion partners need not be part of it.
T1: ICAM-3 (recombinant, Sino Biological 10333-H03H) (UniProt P32942)
T1 sequence: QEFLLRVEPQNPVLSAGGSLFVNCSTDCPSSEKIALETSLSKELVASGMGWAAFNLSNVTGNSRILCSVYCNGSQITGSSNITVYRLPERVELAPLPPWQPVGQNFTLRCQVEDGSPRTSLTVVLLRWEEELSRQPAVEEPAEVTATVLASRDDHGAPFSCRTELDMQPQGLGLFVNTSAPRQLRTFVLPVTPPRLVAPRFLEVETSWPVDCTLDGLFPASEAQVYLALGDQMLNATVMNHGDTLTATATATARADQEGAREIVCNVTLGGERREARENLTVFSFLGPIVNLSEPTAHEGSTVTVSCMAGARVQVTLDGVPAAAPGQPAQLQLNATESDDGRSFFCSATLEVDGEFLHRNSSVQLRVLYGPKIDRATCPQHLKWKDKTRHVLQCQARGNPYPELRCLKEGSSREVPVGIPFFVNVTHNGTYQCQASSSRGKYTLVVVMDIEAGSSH

Protein sequences, listed by entry. Tags and fused reporters are not part of them. Lines headed by an entry give the natural chain unless they say otherwise; changes in a name come on top. Residues count along the entry.
UniProt P05362, residues 28-480: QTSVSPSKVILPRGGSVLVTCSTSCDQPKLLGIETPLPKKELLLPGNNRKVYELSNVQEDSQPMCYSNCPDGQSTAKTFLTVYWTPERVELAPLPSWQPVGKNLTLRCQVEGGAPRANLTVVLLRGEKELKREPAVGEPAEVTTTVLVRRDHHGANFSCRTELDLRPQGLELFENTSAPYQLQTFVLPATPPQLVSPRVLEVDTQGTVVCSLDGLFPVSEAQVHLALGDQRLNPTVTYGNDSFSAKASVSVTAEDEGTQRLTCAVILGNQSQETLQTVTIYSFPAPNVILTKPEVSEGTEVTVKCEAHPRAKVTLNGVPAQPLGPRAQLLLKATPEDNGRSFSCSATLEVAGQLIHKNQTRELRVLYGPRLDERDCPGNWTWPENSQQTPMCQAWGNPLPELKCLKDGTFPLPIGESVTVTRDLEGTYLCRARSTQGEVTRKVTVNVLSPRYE
UniProt P13598, residues 25-223: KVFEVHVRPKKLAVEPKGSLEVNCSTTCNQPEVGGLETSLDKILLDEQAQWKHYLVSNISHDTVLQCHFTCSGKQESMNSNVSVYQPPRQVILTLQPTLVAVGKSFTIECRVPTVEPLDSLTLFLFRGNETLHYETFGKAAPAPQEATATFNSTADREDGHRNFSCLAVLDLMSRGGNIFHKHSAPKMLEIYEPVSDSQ
UniProt P01024, residues 955-1303: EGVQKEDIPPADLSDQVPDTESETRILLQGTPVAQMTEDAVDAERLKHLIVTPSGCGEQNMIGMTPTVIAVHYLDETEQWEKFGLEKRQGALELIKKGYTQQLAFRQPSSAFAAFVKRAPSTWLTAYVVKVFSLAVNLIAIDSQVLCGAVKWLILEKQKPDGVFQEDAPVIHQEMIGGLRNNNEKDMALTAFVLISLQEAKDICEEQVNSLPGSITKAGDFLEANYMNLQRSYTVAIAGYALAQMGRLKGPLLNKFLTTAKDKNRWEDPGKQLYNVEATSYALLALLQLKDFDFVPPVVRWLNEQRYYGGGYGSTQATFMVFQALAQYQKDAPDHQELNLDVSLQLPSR

B1: CR4 αXI domain, wild type (WT) (domain or fragment, UniProt P20702 148-336)
chain: QEQDIVFLIDGSGSISSRNFATMMNFVRAVISQFQRPSTQFSLMQFSNKFQTHFTFEEFRRSSNPLSLLASVHQLQGFTYTATAIQNVVHRLFHASYGARRDAAKILIVITDGKKEGDSLDYKDVIPMADAAGIIRYAIGVGLAFQNRNSWKELNDIASKPSQEHIFKVEDFDALKDIQNQLKEKIFAI
B2: CR4 αXI domain, high-affinity (HA) variant p.I333G (domain or fragment, UniProt P20702 148-336)
chain: B1 chain with I186G
B3: CD11d αDI domain, high-affinity (HA) variant p.I332G (domain or fragment, UniProt Q13349 145-334)
chain: PHQEMDIVFLIDGSGSIDQNDFNQMKGFVQAVMGQFEGTDTLFALMQYSNLLKIHFTFTQFRTSPSQQSLVDPIVQLKGLTFTATGILTVVTQLFHHKNGARKSAKKILIVITDGQKYKDPLEYSDVIPQAEKAGIIRYAIGVGHAFQGPTARQELNTISSAPPQDHVFKVDNFAALGSIQKQLQEKGYA
B4: CD11d αDI domain, wild type (WT) (domain or fragment, UniProt Q13349 145-334)
chain: B3 chain with G188I

Columns and labels:
[1] = molecular target: ICAM-1 (recombinant, Sino Biological 10346-H03H) (UniProt P05362); assay: SPR; ICAM-1, ICAM-2, ICAM-3 amine-coupled to a CM5 chip; αI domains injected; 25 °C; HBST with 1 mM MgCl2; both purified
[2] = molecular target: ICAM-2 (recombinant, Sino Biological 10332-H03H) (UniProt P13598); assay: as above
[3] = molecular target: T1, ICAM-3 (recombinant, Sino Biological 10333-H03H); assay: as above
[4] = molecular target: C3b (UniProt P01024); assay: SPR; as a1 but HBST with 5 mM EDTA instead of MgCl2; C3 fragments on the chip, αI domains injected; both purified
[5] = molecular target: C3dg (UniProt P01024); assay: as above
[6] = molecular target: C3b (UniProt P01024); assay: SPR; C3b deposited on a CM5 chip (amine-coupled seed, then convertase-mediated deposition to about 5000 RU), iC3b and C3dg made from it on the chip; αI domains injected as dilution series, 120 s; Biacore T200, 25 °C; HBST (10 mM HEPES, 150 mM NaCl, 0.005% Tween-20, pH 7.4) with 1 mM MgCl2; Langmuir 1:1 fit, KD calculated; both purified
[7] = molecular target: C3dg (UniProt P01024); assay: as above

Row | Binder | binding [1] | binding [2] | binding [3] | binding [4] | binding [5] | binding [6] | binding [7]
1 | B1 | binds weakly | binds weakly | binds weakly |  |  |  | 
2 | B2 | binds weakly |  |  | no binding (condition: with 5 mM EDTA) | no binding (condition: with 5 mM EDTA) |  | 
3 | B3 |  |  |  |  |  | no binding | no binding
4 | B4 | no binding | no binding | no binding |  |  | no binding | no binding
